This assay addresses Nonstructural protein 3 (Zika virus) (UniProt A0A024AXB9).
[1] abbreviates: PRVABC59, Concentration 50.0 uM, Number of replicates 1.0.
[2] abbreviates: PRVABC59, Concentration 15.0 uM, Number of replicates 1.0.

The values that follow come from ChEMBL document CHEMBL5606458, “ASAP - ZIKV NS2B-NS3 protease fluorescence single point” (2024).

The whole screen tested about 2,700 compounds, of which about 160 (5.9%) showed an effect of 50% or more. Some of the results follow. Where a SMILES comes first, the peptide text is derived from it. The star is where a group is joined. Boc = CC(C)(C)OC(=O)*

Chain of UniProt A0A024AXB9 (A0A024AXB9 as listed by the source): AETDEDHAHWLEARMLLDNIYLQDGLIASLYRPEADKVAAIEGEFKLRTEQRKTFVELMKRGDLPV

As a reminder, the inhibition is the drop in the measured response relative to a control, in per cent. On to `O=Cc1ccc(N2CCC(C(=O)Nc3ncc(F)cc3Br)CC2)cc1`, for which, under setting [1], the inhibition was 19.1%.
As for `CC1(C)CC(=O)CC(C)(C)N1C(=O)C1CCN(c2ccc(C=O)cc2)CC1`, under setting [1], the inhibition was 25.4%.
Turning to `Cc1cc(CO)c2cccc(NCc3sccc3C)c2n1`, the inhibition is 0.578% (PRVABC59, Concentration 49.95 uM, Number of replicates 2.0, Standard deviation 0.13621007965038606 %) and -1.27% (PRVABC59, Concentration 99.9 uM, Number of replicates 2.0, Standard deviation 0.14629971908253026 %).
Take `CN(CCc1ccc([N+](=O)[O-])cc1)C(=O)c1cc(Cl)ccc1NS(=O)(=O)c1ccc(Oc2ccccc2Cl)cc1`: the inhibition under setting [2] turned out to be 11.9%.
`CCOc1cc(CNC(=O)[C@]2(c3ccc(F)cc3)CCCNC2)ccc1O`: the inhibition by setting is: (PRVABC59, Concentration 49.5 uM, Number of replicates 2.0, Standard deviation 1.0122740724027686 %) -1.28%; (PRVABC59, Concentration 99.01 uM, Number of replicates 2.0, Standard deviation 1.3294936869558769 %) 0.697%; (PRVABC59, Concentration 198.0 uM, Number of replicates 2.0, Standard deviation 1.9942405146287472 %) 2.66%.
In the case of `COc1cccc(CN(C(=O)c2cc(Cl)ccc2NS(=O)(=O)c2ccc(Oc3ccccc3Cl)cc2)C23CC4CC(CC(C4)C2)C3)c1`, under setting [2], the inhibition turned out to be 27.2%.
On to `Cn1cc([C@@H](NC(=O)OCc2ccccc2)C(=O)Nc2cccc(CN)c2)cn1`, for which the inhibition is, setting by setting: (PRVABC59, Concentration 49.5 uM, Number of replicates 2.0, Standard deviation 1.7191102708218762 %) 1.72%; (PRVABC59, Concentration 99.01 uM, Number of replicates 2.0, Standard deviation 1.6791311190235945 %) 4.67%; (PRVABC59, Concentration 198.0 uM, Number of replicates 2.0, Standard deviation 2.8403482765537995 %) 9.86%.
`Cc1cc(CO)c2cccc(Cc3ccccc3NC(=O)c3ccc(N)nn3)c2n1`: the inhibition is -1.22% (PRVABC59, Concentration 49.95 uM, Number of replicates 2.0, Standard deviation 1.8729957904336396 %) and 6.56% (PRVABC59, Concentration 99.9 uM, Number of replicates 2.0, Standard deviation 1.8933541091104023 %).
As for `O=C(Nc1cc(Cl)c(F)cc1F)c1cc(Cl)ccc1NS(=O)(=O)c1ccc(Oc2ccccc2Cl)cc1`, the inhibition under setting [2] stood at 26.5%.
Take `CC(C)c1cc(CNC(=O)[C@]2(c3ccc(F)cc3)CCCNC2)[nH]n1`: the inhibition is, setting by setting: (PRVABC59, Concentration 49.5 uM, Number of replicates 2.0, Standard deviation 3.8758354422703674 %) 3.44%; (PRVABC59, Concentration 99.01 uM, Number of replicates 2.0, Standard deviation 0.40934620854023696 %) 3.54%; (PRVABC59, Concentration 198.0 uM, Number of replicates 2.0, Standard deviation 1.2876270201571711 %) 2.97%.
On to `Cn1cccc(CN2CCC(c3c[nH]c4cccnc34)CC2)c1=O`, for which the inhibition by setting is: (PRVABC59, Concentration 49.5 uM, Number of replicates 2.0, Standard deviation 0.07177165759495889 %) -0.869%; (PRVABC59, Concentration 99.01 uM, Number of replicates 2.0, Standard deviation 0.38070186159308106 %) 1.77%; (PRVABC59, Concentration 198.0 uM, Number of replicates 2.0, Standard deviation 0.010921765735719036 %) 3.27%.
As for `COc1ccc(OC)c(CN2CCN(C(=O)c3cc(Cl)ccc3NS(=O)(=O)c3ccc(Oc4ccccc4Cl)cc3)CC2)c1`, under setting [2], the inhibition came to 17%.
With `Cc1cnccc1CN1CCC(c2c[nH]c3cccnc23)CC1`, the inhibition by setting is: (PRVABC59, Concentration 49.5 uM, Number of replicates 2.0, Standard deviation 5.559663785413653 %) 0.299%; (PRVABC59, Concentration 99.01 uM, Number of replicates 2.0, Standard deviation 3.2336290336723508 %) -1.65%; (PRVABC59, Concentration 198.0 uM, Number of replicates 2.0, Standard deviation 2.7253763099694166 %) -1.24%.
Turning to `Cc1[nH]c(=O)c(NC(=O)C2CCN(c3ccc(C=O)cc3)CC2)cc1Br`, the inhibition under setting [1] was found to be 14.7%.
Take `COCCN(C(=O)c1cc(Cl)ccc1NS(=O)(=O)c1ccc(Oc2ccccc2Cl)cc1)C1CCN(C)CC1`: the inhibition under setting [2] amounted to 16.9%.
With `CSCC[C@H](NC(=O)OC(C)(C)C)C(=O)N1CCC[C@H]1C(=O)O` (Boc-Met-Pro-OH), the inhibition (PRVABC59, Concentration 49.5 uM, Number of replicates 2.0, Standard deviation 1.4430750920306277 %) is -1.43%; the inhibition (PRVABC59, Concentration 99.01 uM, Number of replicates 2.0, Standard deviation 1.380895888569354 %) was -2.23%; the inhibition (PRVABC59, Concentration 198.0 uM, Number of replicates 2.0, Standard deviation 1.8524213848645616 %) is -1.15%.
On to `O=C(NCCc1ccn[nH]1)c1cccc2c1NC(=O)[C@]1(CCCN1)C2`, for which the inhibition came out at 0.758% (PRVABC59, Concentration 49.5 uM, Number of replicates 2.0, Standard deviation 0.0 %); 2.31% (PRVABC59, Concentration 99.01 uM, Number of replicates 2.0, Standard deviation 1.791897288144311 %); 5.39% (PRVABC59, Concentration 198.0 uM, Number of replicates 2.0, Standard deviation 2.54780683245229 %).
For the molecule `O=C(Nc1nc2c(Cl)cccc2s1)c1cc(Cl)ccc1NS(=O)(=O)c1ccc(Oc2ccccc2Cl)cc1`, the inhibition under setting [2] stood at 21.8%.
For `CN(C)Cc1cn(C2CN(C(=O)c3ccc4[nH]ncc4c3)C2)nn1`, the inhibition (PRVABC59, Concentration 49.5 uM, Number of replicates 2.0, Standard deviation 0.4789294753199647 %) is -3.5%; the inhibition (PRVABC59, Concentration 99.01 uM, Number of replicates 2.0, Standard deviation 2.1084825820906183 %) was -2.89%; the inhibition (PRVABC59, Concentration 198.0 uM, Number of replicates 2.0, Standard deviation 1.9495019194256606 %) is -1.3%.
With `O=C(Nc1cc(Cl)nc(Cl)n1)c1cc(Cl)ccc1NS(=O)(=O)c1ccc(Oc2ccccc2Cl)cc1`, the inhibition under setting [2] was 21.3%.
On to `O=C(NCCc1c[nH]cn1)[C@@]1(c2ccc(F)cc2)CCCNC1`, for which the inhibition amounted to 1.12% (PRVABC59, Concentration 50.0 uM, Number of replicates 2.0, Standard deviation 1.8533531884648646 %); 2.94% (PRVABC59, Concentration 100.0 uM, Number of replicates 2.0, Standard deviation 1.243259032729753 %); 1.26% (PRVABC59, Concentration 200.0 uM, Number of replicates 2.0, Standard deviation 0.45116199355607794 %).
As for `O=C(c1cc(Cl)ccc1NS(=O)(=O)c1ccc(Oc2ccccc2Cl)cc1)N1CCN(Cc2ccc(C(F)(F)F)cc2)CC1`, the inhibition under setting [2] amounted to 34%.
Regarding `O=Cc1ccc(N2CCC(C(=O)Nc3ccc([N+](=O)[O-])c4ccccc34)CC2)cc1`, under setting [1], the inhibition turned out to be 23.8%.
As to `c1ccc2c([C@H]3CCN(Cc4cnns4)C3)c[nH]c2c1`, the inhibition is, setting by setting: (PRVABC59, Concentration 49.5 uM, Number of replicates 2.0, Standard deviation 2.0058417718561588 %) -0.381%; (PRVABC59, Concentration 99.01 uM, Number of replicates 2.0, Standard deviation 1.7733417166189047 %) 2.75%; (PRVABC59, Concentration 198.0 uM, Number of replicates 2.0, Standard deviation 1.6486370311889924 %) 9.91%.
As for `CC(C)(C)N(C[C@H](O)c1ccc(O)c(CO)c1)C(=O)C1CCN(c2ccc(C=O)cc2)CC1`, the inhibition under setting [1] is 22.6%.
Still for that read-out and setting: for `O=Cc1ccc(N2CCC(C(=O)N[C@@H](Cc3ccccc3)c3ccccc3)CC2)cc1` the value was 5.89%.
For `NS(=O)(=O)c1cccc(CN2CC[C@H](c3c[nH]c4ccccc34)C2)c1`, the inhibition by setting is: (PRVABC59, Concentration 49.5 uM, Number of replicates 2.0, Standard deviation 2.3207736870822324 %) 1.04%; (PRVABC59, Concentration 99.01 uM, Number of replicates 2.0, Standard deviation 2.4391372527131354 %) 7.2%; (PRVABC59, Concentration 198.0 uM, Number of replicates 2.0, Standard deviation 2.682205208746011 %) 16.8%.
Consider `O=C(NCCSCc1ccccc1)c1cc(Cl)ccc1NS(=O)(=O)c1ccc(Oc2ccccc2Cl)cc1`, for which the inhibition under setting [2] is 20.5%.
Consider `COc1cc(CN2CC(O)C2)ccc1OC[C@@H](O)CN1CCC(O)CC1`, for which the inhibition (PRVABC59, Concentration 49.5 uM, Number of replicates 2.0, Standard deviation 2.4221812383824144 %) was determined as 0.189%; the inhibition (PRVABC59, Concentration 99.01 uM, Number of replicates 2.0, Standard deviation 2.075192767353743 %) was 0.785%; the inhibition (PRVABC59, Concentration 198.0 uM, Number of replicates 2.0, Standard deviation 0.11959307349566267 %) is -0.75%.
`COc1cccc(Cn2cc(C3CCNCC3)c(C)n2)n1`: the inhibition by setting is: (PRVABC59, Concentration 49.5 uM, Number of replicates 2.0, Standard deviation 0.37592932105510146 %) -1.6%; (PRVABC59, Concentration 99.01 uM, Number of replicates 2.0, Standard deviation 0.3669357736387558 %) -1.01%; (PRVABC59, Concentration 198.0 uM, Number of replicates 2.0, Standard deviation 1.0468461049068225 %) 0.825%.
In the case of `O=C(NCc1ccccc1)c1cc(O)ccc1NS(=O)(=O)c1ccc(Oc2ccccc2Cl)cc1`, the inhibition (PRVABC59, Concentration 49.5 uM, Number of replicates 2.0, Standard deviation 1.023228375505538 %) is -9.7%.
Take `O=Cc1ccc(N2CCC(C(=O)NCc3ccccc3-n3cccn3)CC2)cc1`: the inhibition (PRVABC59, Concentration 10.0 uM, Number of replicates 1.0) came out at 21.4%.
As for `O=C(NCc1ccc(OC(F)(F)F)cc1)c1cc(Cl)ccc1NS(=O)(=O)c1ccc(Oc2ccccc2Cl)cc1`, under setting [2], the inhibition is 32.5%.
On to `Cc1cc(CO)c2cccc(Cc3ccccc3C(=O)N3CCCNCC3)c2n1`, for which the inhibition (PRVABC59, Concentration 99.9 uM, Number of replicates 2.0, Standard deviation 2.6741643486934055 %) was -2.96%.
In the case of `Cc1cc(CO)c2cccc(Cc3cccc(NC(=O)Cc4c(C)c5c(=O)[nH]n(C)c5[nH]c4=O)c3)c2n1`, the inhibition reads like this: (PRVABC59, Concentration 49.95 uM, Number of replicates 2.0, Standard deviation 0.9685022100006885 %) 29.7%; (PRVABC59, Concentration 99.9 uM, Number of replicates 2.0, Standard deviation 0.32116033435216484 %) 54.1%.
As for `CC(C)(C)N(Cc1cccnc1)C(=O)C1CCN(c2ccc(C=O)cc2)CC1`, the inhibition under setting [1] was 25%.
With `O=C1NCCC[C@@H]1CNS(=O)(=O)c1ccc(Oc2ccccc2Cl)cc1`, the inhibition was found to be 8.27% (PRVABC59, Concentration 49.5 uM, Number of replicates 2.0, Standard deviation 1.4119096470460955 %); 8.71% (PRVABC59, Concentration 99.01 uM, Number of replicates 2.0, Standard deviation 5.0537068848428035 %); 7.13% (PRVABC59, Concentration 198.0 uM, Number of replicates 2.0, Standard deviation 1.1434777175793638 %).
With `O=C(Nc1ncc(Br)cc1O)c1cc(Cl)ccc1NS(=O)(=O)c1ccc(Oc2ccccc2Cl)cc1`, under setting [2], the inhibition amounted to 55.3%.
Same read-out and setting: in the case of `O=C(c1cc(Cl)ccc1NS(=O)(=O)c1ccc(Oc2ccccc2Cl)cc1)N(CCCO)Cc1ccncc1` it was 12.7%.
Turning to `COc1ccccc1C[C@H](C)N(C)C(=O)C1CCN(c2ccc(C=O)cc2)CC1`, the inhibition under setting [1] came out at 22.2%.
